Reference: US20160367664A1 (AGENCY FOR SCIENCE TECHNOLOGY AND RESEARCH, published 2016)

Biological target: T1, recombinant human interleukin 2 receptor β (IL-2Rβ; CD122) (human, UniProt P14784 27-240)
T1 construct: Recombinant chain immobilised on the SPR chip and used as antigen in the ELISAs; also called human IL-2Rβ
T1 sequence (looked up): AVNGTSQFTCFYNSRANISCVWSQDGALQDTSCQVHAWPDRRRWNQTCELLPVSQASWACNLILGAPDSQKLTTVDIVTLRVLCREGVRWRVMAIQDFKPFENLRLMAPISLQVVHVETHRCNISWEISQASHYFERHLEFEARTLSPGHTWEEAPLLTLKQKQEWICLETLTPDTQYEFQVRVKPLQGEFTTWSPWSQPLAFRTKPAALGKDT
Test: ELISA, biotinylated IL-2Rβ titrated on the bispecific antibody; the concentration is that of IL-2Rβ

B1: bispecific antibody clone P2C4/P1A3 with the GGGGSAAA short linker (bispecific antibody)
chain 1: EVQLVQSGAEVKKPGSSVKVSCKASGYTFTNYYMHWVRQAPGQGLEWMGAIMPSRGGTSYPQKFQGRVTMTGDTSTSTVYMELSSLRSEDTAVYYCARGEYYYDSSGYYYWGQGTLVTVSSGGGGSGGGGSGGGGSQSALTQPASVSGSPGQSIAISCTGTSSDIGHYDFVSWYQQHPGTAPKLIIYDINNRPSGISNRFSGSKSDNMASLTISGLQPEDEADYYCSAYTSSDTLVFGGGTKLTVLGGGGSA[not shown - human IgG1 Fc with changes and a few adjoining residues]
chain 2: QVQLQQWGAGLLKPSETLSLTCAVYGGSFSGYYWSWIRQPPGKGLEWIGEINHSGSTNYNPSLKSRATISVDTSKNQFSLKLSSVTAADTAVYYCATSPGGYSGGYFQHWGQGTLVTVSSGGGGSGGGGSGGGGS[not shown - about 100 residues]YCMQGTHWPWTFGQGTKVEIKGGGGSAAATHTCPPCPAPEAAGGPSVFLFPPKPKDTLMISRTPEVTCVVVDVSHEDPEVKFNWYVDGVEVHNAKTKPREEQYNSTYRVVSVLTVLHQDWLNGKEYKCKVSNKALPAPIEKTISKAKGQPREPQVCTLPPSRDELTKNQVSLSCAVKGFYPSDIAVEWESNGQPENNYKTTPPVLDSDGSFFLVSKLTVDKSRWQQGNVFSCSVMHEALHNHYTQKSLSLSPGK
  EC50 (read off the curve): ~50 nM
